Assay results reported in PubChem BioAssay AID1645882 (National Center for Advancing Translational Sciences (NCATS), 2021).
In all, about 16,000 compounds went through this assay and about 120 (0.75%) were called active. Inconclusive results (about 4%) are left out. Calls follow the shape of the dose curve; as a rule, active = well fitted inhibition curve with a large enough effect; inconclusive = small, poorly fitted or top-dose-only effect; inactive = no such curve, though single readings can be large or run the other way. This is one part of the list.

Biological target: Rap guanine nucleotide exchange factor 3 (Homo sapiens) (UniProt O95398)
Chain of UniProt O95398 (O95398 whole entry, looked up): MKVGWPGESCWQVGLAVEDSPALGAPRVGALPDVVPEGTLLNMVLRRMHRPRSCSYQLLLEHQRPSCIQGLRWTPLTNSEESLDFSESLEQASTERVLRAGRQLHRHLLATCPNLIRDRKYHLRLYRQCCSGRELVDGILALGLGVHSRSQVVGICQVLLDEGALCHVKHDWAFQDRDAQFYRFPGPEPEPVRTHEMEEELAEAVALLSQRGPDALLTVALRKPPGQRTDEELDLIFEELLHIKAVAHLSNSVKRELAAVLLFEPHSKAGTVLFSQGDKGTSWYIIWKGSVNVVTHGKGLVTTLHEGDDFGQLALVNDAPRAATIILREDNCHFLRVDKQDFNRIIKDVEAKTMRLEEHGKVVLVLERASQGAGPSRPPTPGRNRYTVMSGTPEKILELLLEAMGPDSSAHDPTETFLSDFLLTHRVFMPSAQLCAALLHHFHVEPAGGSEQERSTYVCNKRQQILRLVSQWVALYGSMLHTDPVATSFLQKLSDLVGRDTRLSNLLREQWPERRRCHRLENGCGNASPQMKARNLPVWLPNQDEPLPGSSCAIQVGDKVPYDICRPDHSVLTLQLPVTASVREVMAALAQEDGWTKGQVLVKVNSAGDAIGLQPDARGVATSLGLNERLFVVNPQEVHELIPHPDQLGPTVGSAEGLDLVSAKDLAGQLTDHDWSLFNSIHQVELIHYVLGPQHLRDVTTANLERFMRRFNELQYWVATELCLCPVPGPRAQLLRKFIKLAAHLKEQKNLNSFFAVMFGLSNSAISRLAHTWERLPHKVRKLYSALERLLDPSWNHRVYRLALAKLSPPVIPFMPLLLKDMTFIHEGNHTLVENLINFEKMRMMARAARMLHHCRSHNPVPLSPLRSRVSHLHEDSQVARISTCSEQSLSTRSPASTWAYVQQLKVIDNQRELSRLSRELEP
Experiment: Validation qHTS for antagonist of cAMP-regulated guanine nucleotide exchange factor 3 (EPAC1);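 also: plate controls were DMSO for no effect and ATA control for full effect; nearly all actives have a fitted effect of over 75% in size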
Details: EPAC1 Rap1B-BODIPY-GDP exchange, fluorescence; series mostly up to 150 µM; activity change, negative = inhibition: at the top concentration
Summary of the method: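 EPAC1 (100 nM) mixed with 250 nM RAP1B-BODIPY-GDP and 50 uM GDP; compounds in concentration series, 5 min at room temperature. Fluorescence (ex 480/em 540 nm) read every 5 min for 30 min; normalized to ATA control and DMSO.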

SMILES	activity change, negative = inhibition
CC(O)(P(=O)(O)O)P(=O)(O)O	inactive: 24.6%
CCCCCCCCCCCCCC(=O)OC(C)C	inactive: 1.26%
Cn1cc(CNC2CCN(c3cccc(NC(=O)c4cccnc4)c3)CC2)cn1	inactive: 14.8%
CN(C)C(=O)c1ccc(-c2cncnc2NCCN2CCOCC2)cc1	inactive: 20.7%
Brc1cc(Br)c[n+](CCc2ccccc2)c1	inactive: -5.28%
COc1ccc(-c2ccc(C(=O)NCC3Cc4cccc(-c5nc(C)cnc5C)c4O3)o2)cc1 (stereo unspecified)	inactive: 12.9%
Cc1cccc(CNc2ncnc3ccc(-c4cccnc4)cc23)c1	inactive: -22.7%
COc1cc2[nH]c(=O)[nH]c(=O)c2cc1OC	inactive: 16.1% [at 75.8 µM]
CC(=O)Oc1ccc(C2(c3ccc(OC(C)=O)cc3)C(=O)Nc3ccccc32)cc1	inactive
COc1ccccc1N1CCN(CCCCNC(=O)c2ccc3ccccc3c2)CC1	inactive: 1.31% [at 75.8 µM]
CCC1NC(=O)c2cc(S(N)(=O)=O)c(Cl)cc2N1 (stereo unspecified)	inactive: -15.2% [at 75.8 µM]
COc1ccc(CN2CCC(=O)N(CCO)CC2)cc1OC	inactive: 11.3%
Cc1ncc(COP(=O)(O)O)c(C=O)c1O	inactive: 4.01%
Cc1cc2nccc(/C=C/c3ccc(N(C)C)cc3)c2cc1C	inactive: 6.22%
COc1ccc(Oc2ncc3nc(-c4cccs4)c(=O)n(Cc4cccc(OC)c4)c3n2)cc1	inactive: 7.88%
COc1cccc(Nc2ncc3nc(-c4cc(F)cc(F)c4)c(=O)n(C[C@H]4CCCO4)c3n2)c1	inactive: 21.9%
Cc1nc2cnc(Nc3ccccc3)nc2n(CCC#N)c1=O	inactive: -0.683%
O=C(Nc1cccc(F)c1)N1CCCC2(CCN(C(=O)c3ccco3)CC2)C1	inactive: 5.98%
COc1cccc(-c2cc(NCc3ccc(OC)cc3OC)ncn2)c1	inactive: -9%
COc1ccc2[nH]cc(CCNc3ncnc4ccc(-c5ccc6c(c5)OCO6)cc34)c2c1	inactive: -21.8%
COc1ccc(NC(=O)N2CC3(CCNCC3)C2)cc1	inactive: 8.08%
COc1ccc(NC(=O)c2ccc(-c3ccc(-c4noc(C)n4)cc3C)cc2)cc1N1CCN(C)CC1	inactive: 4.44% [at 75.8 µM]

SMILES	activity change, negative = inhibition
CCCCNc1ccc(C(=O)OCCN(C)C)cc1	inactive
CC(C)[N+]1(C)[C@@H]2CC[C@H]1CC(OC(=O)[C@@H](CO)c1ccccc1)C2 (stereo partly specified)	inactive: 16.6%
C[C@H]1[C@H]2CC[C@H]3C4CC=C5C[C@@H](N(C)C)CC[C@]5(C)C4CC[C@]23CN1C (stereo partly specified)	inactive: -2.63%
Cc1cnc(C)c(-c2cccc3c2OC(CNC(=O)CN2C(=O)c4ccccc4C2=O)C3)n1 (stereo unspecified)	inactive: 2.78%
O=C(c1ccccc1-n1cccn1)N1CCOc2c(cc(-c3ncc(C(F)(F)F)cc3Cl)cc2OCC2CCCO2)C1 (stereo unspecified)	inactive: 1.97%
CCCCCOC(=O)Nc1nc(=O)n([C@@H]2O[C@H](C)[C@@H](O)[C@H]2O)cc1F	inactive: 12.3%
Cc1nonc1CN(C)C(=O)C1CC12CCN(C(=O)/C=C/c1cccc(Cl)c1)CC2 (stereo unspecified)	inactive: 5.93%
C[N+](C)(CCCCCC[N+](C)(C)C1c2ccccc2-c2ccccc21)C1c2ccccc2-c2ccccc21	inactive: 25.9%
O=C(Cn1cnnn1)N[C@@H]1C(=O)N2C(C(=O)O)=C(CSc3nncs3)CS[C@H]12	inactive
Cc1ccsc1C1Cc2c(C(=O)NCc3cccnc3)c(=O)cc(C)n2-c2ccccc2S1 (stereo unspecified)	inactive: 25.3%
CN1CCN(c2cc(-c3ccccc3C(F)(F)F)ncn2)CC1	inactive: 13.4%
CC(=O)NCCNc1nc(-c2ccccc2Cl)nc2ccccc12	inactive: 9.81%
CC(C)NC(=O)N1CCCC2(CCN(C(=O)c3cccc(F)c3)CC2)C1	inactive: 21%
COCCn1c(=O)c(-c2ccccc2)nc2cncnc21	inactive: 0.267%
COc1ccccc1C1CN(Cc2cnn(C)c2C)Cc2ccccc2O1 (stereo unspecified)	inactive: 15.7%
CSC(N)=NCCC[C@H](N)C(=O)O	inactive: 14.2% [at 75.8 µM]
COc1ccc(-n2c(=O)c(-c3cccs3)nc3cnc(OC)nc32)cc1	inactive: 16.2%
Cc1cccc(CNc2ncnc3ccc(-c4cccc(C#N)c4)cc23)c1	inactive: 29%
C[C@H]1CCC(=O)N([C@H](CSc2ccc(Br)cc2)Cc2ccccc2)CC1	inactive: -3.46%
COC(=O)c1ccccc1-c1cc(C)cc2c1OC(CNC(=O)c1ccn(C)n1)C2 (stereo unspecified)	inactive: 17.4%
CN1CCC(=C2c3ccccc3CCc3sccc32)CC1	inactive
Cc1cnc(CNc2ncnc3ccc(-c4ccccc4Cl)cc23)cn1	inactive: 2.92%

SMILES	activity change, negative = inhibition
N=c1ccn2c(n1)OCC1C2O[C@@H](O)[C@H]1O (stereo partly specified)	inactive: 5.06%
COc1cccc(CNC(=O)c2c(OC)cc(=O)n3c2CCN(C(=O)c2ccccc2Cl)CC3)c1	inactive: 12.9%
OCC(O)CS (stereo unspecified)	inactive: 11.9%
COCC(=O)N1CCC2(CC1)CN(c1ccc(-c3ccccc3)cc1)C2	inactive: 1.54%
Cc1cccc(C)c1OCC(N)C(C)C (stereo unspecified)	inactive: -7.91% [at 75.8 µM]
CSc1ncccc1C(=O)NCC1Cc2cc(-c3cnccn3)cc(Cl)c2O1 (stereo unspecified)	inactive: -3.86%
C[C@H](CSC(=O)c1ccccc1)C(=O)N1C[C@@H](Sc2ccccc2)C[C@H]1C(=O)O	inactive: 24.6%
CN1CCOC(c2ccccc2)c2ccccc2C1 (stereo unspecified)	inactive
COc1cc2nc(N3CCCC(O)C3)c(CNCc3ccccc3F)cc2c(OC)c1OC (stereo unspecified)	inactive: 3.12%
CN(C)C(=O)OC1=C(c2ccccc2)Sc2ccccc2-n2cccc21	inactive: -8.09%
O=C(Oc1ccccc1)N1CCC2(CCCN(c3cccc(-c4ccccc4)c3)C2)CC1	inactive: 2.53%
COc1ccc(C(=O)N2CCC3(CC2)CN(c2ncccn2)C3)cc1	inactive: 1.47%
CC(C)C[C@H]1C(=O)N2CCC[C@H]2[C@]2(O)O[C@](NC(=O)[C@@H]3C=C4c5cccc6[nH]c(Br)c(c56)C[C@H]4N(C)C3)(C(C)C)C(=O)N12	inactive
COc1ccc2[nH]cc(CCNc3cc(-c4ccc5c(c4)OCO5)ncn3)c2c1	inactive: 3.19%
NCCNS(=O)(=O)c1cccc2c(Cl)cccc12	inactive
COCCn1c(=O)c(CCc2ccccc2)nc2cnc(Nc3cccc(OC)c3)nc21	inactive: 2.27%
Nc1ncnc2c1ncn2[C@@H]1O[C@H](COP(=O)(O)CP(=O)(O)OP(=O)(O)O)[C@@H](O)[C@H]1O	inactive
COC(=O)C1=C(C)NC(C)=C([N+](=O)[O-])[C@@H]1c1ccccc1C(F)(F)F	inactive: -11.3%
Cc1c(I)c(=O)n(-c2ccccc2)n1C	inactive: 22%
Cc1ccccc1C(OCCN(C)C)c1ccccc1 (stereo unspecified)	inactive
CCC1CN(CC(=O)NCc2cc(C)n(C)n2)Cc2cc(OC)ccc2O1 (stereo unspecified)	inactive: 9.43%
O=C(c1cccc(F)c1)N1CCC2(CCN(Cc3ccncc3)CC2)CC1	inactive: -3.12%

SMILES	activity change, negative = inhibition
O=C(c1csnn1)N1CCC2(CC1)CCN(c1ccccn1)CC2	inactive: 20.3%
CCCCC#Cc1nc(NC)c2ncn([C@@H]3O[C@@H](CO)[C@H](O)[C@H]3O)c2n1	inactive: 2.98%
Cn1cccc1C(=O)N1CCC2(CCCN(C(=O)Nc3ccccc3)C2)CC1	inactive: 15.8%
OC1(c2ccc3c(c2)CN(Cc2ccco2)CCO3)CCN(c2ccccc2F)CC1	inactive: -0.132%
CO[C@H]1[C@H](NC(=O)c2ccsc2)c2ccccc2C12CCN(Cc1cccc3ncccc13)CC2	inactive: 14.9%
O=C(NCC1Cc2cccc(-c3cnccn3)c2O1)c1ccc2c(c1)OCCO2 (stereo unspecified)	inactive: -2.15%
NCCCC(N)(C(=O)O)C(F)F (stereo unspecified)	inactive
Cc1c(C(=O)NCCN2CCOCC2)cnn1-c1nccc(-c2cc3ccccc3o2)n1	inactive: 26.5%
COc1cccc(-c2ccnc(-n3ncc(C(=O)NCC4(N5CCCCC5)CCCC4)c3C)n2)c1	inactive: 15.2%
Cc1ccc2c(c1)CN(CCNC(=O)c1cc3ccccc3oc1=O)CC(C)O2 (stereo unspecified)	inactive: -2.23%
O=C(Nc1ccc([N+](=O)[O-])cc1)Nc1ccc([N+](=O)[O-])cc1	inactive: 9.73%
CCCN1CCC(=O)N([C@H](CO)c2ccccc2)CC1	inactive: 13.2%
CCCCCCCCCCCC1=C(O)C(=O)C=C(O)C1=O	inactive
CC(=O)Nc1ccc(OCCOCCOc2ccc(NC(C)=O)cc2)cc1	inactive: 8.8%
N#CCCn1c(=O)c(-c2ccccc2)nc2cnc(Oc3cccc(Cl)c3)nc21	inactive: 9.7%
COC(=O)N1CCC2(CCCN(C(=O)Nc3cccc(F)c3)C2)CC1	inactive: 17.5%
COc1c2ccoc2cc2oc(=O)ccc12	inactive
COc1cc(-c2c(-c3ccc4c(c3)OCO4)noc2-c2ccsc2)ccc1F	inactive: 4.4%
CNc1ncncc1-c1ccccc1OC	inactive: 25.9%
O=C(c1ccco1)N1CCC2(CC1)CN(c1ccccc1)C2	inactive: 6.04%
COC(=O)c1ccccc1-c1cc(C)cc2c1OC(CNC(=O)c1cc(C)on1)C2 (stereo unspecified)	inactive: -2.93%
CC(C)(C)CC(C)(C)N=C1Nc2ccccc2NC12C[C@H]1CCC(=O)N3CC[C@@H](C2)[C@@H]13 (stereo partly specified)	inactive: -14.6%

SMILES	activity change, negative = inhibition
Cc1noc(C)c1C(=O)N1CCC2(CC1)CCN(c1ccccn1)CC2	inactive: 21.3%
O=C1CCc2ccc(OCCCCN3CCN(c4cccc(Cl)c4Cl)CC3)cc2N1	inactive: 18.3%
COc1ccccc1C1CN(Cc2cccn2-c2ncccn2)Cc2ccccc2O1 (stereo unspecified)	inactive: -9.8%
CCCCCCCCCCCCCCCC(=O)C(F)(F)F	inactive: -7.81%
Cc1cnc(SCc2ccccn2)nc1C1CCCN(C(=O)c2ccc3c(c2)OCO3)C1 (stereo unspecified)	inactive: 2.88%
CN(C)CCOC(c1ccc(Cl)cc1)c1ccccn1 (stereo unspecified)	inactive
COc1ccc(NC(=O)N2CCC3(CC2)CCN(S(=O)(=O)c2ccccc2)CC3)cc1	inactive: 19.3%
NC(=O)NC1NC(=O)NC1=O (stereo unspecified)	inactive
COc1cc(Cl)c(C)cc1N1C(=O)[C@@H]2C[C@H]1CN2Cc1ccccn1	inactive: 10.5%
O=C(c1ccco1)N1CCC[C@@]2(CCN(Cc3nccs3)C2)C1	inactive: 16%
COc1cc(-c2cc(C)c3c(OC)ccc(OC)c3n2)cc2c1OCCN(C(=O)CCn1ccc(C)n1)C2	inactive: 10.9%
Nc1c(Br)cc(C=O)cc1Br	inactive: 7.72%
COc1cc2c(cc1O)C(Cc1ccc(O)cc1)[N+](C)(C)CC2 (stereo unspecified)	inactive: 7.24%
O=c1cc(-c2ccc(O)cc2)oc2cc(O)ccc12	inactive: -2.75%
N[C@H](CCC(=O)NCC(=O)O)C(=O)O	inactive: -15.4%
O=C(c1csnn1)N1CCC[C@@]2(CCN(c3ncccn3)C2)C1	inactive: 16.4%
CCCN=C(N)NCCC[C@H](N)C(=O)O	inactive: 15.5%
CCCCN(CCC(=O)O)c1ccc(/C=C/c2ccnc3ccccc23)cc1	inactive: 17.7%
